B1: His-tagged CheV (protein, UniProt Q0PBM1 1-318)
chain: MFDENIVKTGSNEMELVDFRIFKQGHDKVYEGIYGVNVSKVREIIKIPSLTELPGVPDYIEGIFDLRGVVIPVVNLAKWMQITEPESTMLKPRVIITEFSNILIGFIVHEAKRIRRINWKDIEPATFSTGSGALDKGKITGVTRIENDEVLLILDLESVVEDLGIYAPKTDIDFGKIEKFTGTALILDDSMTARKRVKEMMQQMGFQVVEAKDGVEGINKLEELSQIYGESLNDTLKIIVSDVEMPQMDGFHFAARIKEDPRFKDIPIVFNSSLSNEFMNEKGVQEAGGEGYLVKFNASDFFNEIAKVIKKHQSQEQG
B2: His-tagged CheA (protein, UniProt Q0PBM2 1-769)
chain: MEDMQEILEDFLVEAFELVEQIDHDLVELESNPEDLELLNRIFRVAHTVKGSSSFLNFDVLTKLTHHMEDVLNKARHGELKITPDIMDVVLESIDRMKTLLNSIRDNGNDTAIGMDIEPICARLTAISEGESPVVATDSNEKSIPQAELEAPKQEIATPEPEVDVNQLSDSEVEAEIERLLKVRKAEDQARRAQKKQTTNAAPKPTNNTANKPTESGEKKVPASGSNASSMDQTIRVEVKRLDHLMNLIGELVLGKNRLLKIYDDVEERYEGEKFLEELNQVVSQLSIIITDVQLAVMKTRMQPIAKVFNKFPRVVRDLSRELGKQIELEITGEETELDKSIVEEIGDPIMHMIRNSCDHGVEDPATRAANGKPEKGIVQLKAYNEGNHIVVEITDDGKGLDPNGLKAKAIEKNLITEREADQMTDKEAFALIFKPGFSTAAKVTNVSGRGVGMDVVKTNIEKLNGVIEIDSELGKGSSFKLKIPLTLAIIQSLLVGTQEEFYAIPLASVLETVRVPIDDIYTIEGKNVLRLRDEVLSLVRLSDVFGVKQVLESGDQTYVVVIGVAESKLGIIVDTLVGQEEIVIKSMGDYLQNIQGIAGATIRGDGRVTLIIDVGAMMDMAKEIKVDIKAQLESSAKKPKEQPSDYKVLIVDDSKMDRTLMQKALEPLGVSLIEATNGVEALNIIKSGEHDIDAMLIDIEMPRMDGYTLAGEIRKYSKYRNLPLIAVTSRTSKTDRLRGVEVGMTEYITKPYSPEYLENVVRKNLKLG

Sequences of proteins named here, by UniProt entry; tags and fusion partners are left off. A line that says so, or that is headed by a name, gives the form on record, which may keep a tag or linker. Residues count along the entry.
UniProt Q9PID1, residues 27-201: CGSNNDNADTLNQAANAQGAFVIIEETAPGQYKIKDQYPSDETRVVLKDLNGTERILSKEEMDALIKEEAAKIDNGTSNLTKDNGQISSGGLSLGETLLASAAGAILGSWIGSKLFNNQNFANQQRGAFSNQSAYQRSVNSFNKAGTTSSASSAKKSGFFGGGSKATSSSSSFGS
His-tagged Cj1564 (residues 42-290 of Cj1564) (Q0P864, residues 42-290): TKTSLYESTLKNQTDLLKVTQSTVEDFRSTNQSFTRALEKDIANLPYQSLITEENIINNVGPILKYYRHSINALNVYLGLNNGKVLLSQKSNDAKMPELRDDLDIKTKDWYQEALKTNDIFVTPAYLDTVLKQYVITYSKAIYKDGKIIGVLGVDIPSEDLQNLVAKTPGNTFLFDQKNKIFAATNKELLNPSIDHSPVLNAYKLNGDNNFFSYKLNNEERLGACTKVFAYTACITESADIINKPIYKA
His-tagged Cj6462 (residues 317-662 of Cj1564) (Q0P864, residues 317-662): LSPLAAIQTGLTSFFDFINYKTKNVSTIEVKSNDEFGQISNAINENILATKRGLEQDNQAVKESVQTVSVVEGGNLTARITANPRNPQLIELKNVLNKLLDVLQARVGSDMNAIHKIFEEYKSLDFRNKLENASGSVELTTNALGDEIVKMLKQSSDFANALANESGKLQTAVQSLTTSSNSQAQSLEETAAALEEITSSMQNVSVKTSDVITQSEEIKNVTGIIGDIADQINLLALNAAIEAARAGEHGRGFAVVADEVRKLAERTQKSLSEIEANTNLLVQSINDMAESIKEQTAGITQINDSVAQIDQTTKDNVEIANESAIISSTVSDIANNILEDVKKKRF
UniProt Q0P9E4: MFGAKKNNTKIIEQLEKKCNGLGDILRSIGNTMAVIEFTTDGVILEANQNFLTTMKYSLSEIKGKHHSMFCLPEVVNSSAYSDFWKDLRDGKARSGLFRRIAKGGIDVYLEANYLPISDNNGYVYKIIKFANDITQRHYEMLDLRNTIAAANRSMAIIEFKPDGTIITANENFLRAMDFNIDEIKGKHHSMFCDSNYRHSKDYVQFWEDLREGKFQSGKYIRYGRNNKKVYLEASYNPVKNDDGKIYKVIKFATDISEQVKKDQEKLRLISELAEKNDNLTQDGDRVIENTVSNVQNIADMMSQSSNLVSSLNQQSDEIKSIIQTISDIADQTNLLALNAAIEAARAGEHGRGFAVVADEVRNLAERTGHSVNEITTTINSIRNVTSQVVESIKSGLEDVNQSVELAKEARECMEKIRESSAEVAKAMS
UniProt P0C635: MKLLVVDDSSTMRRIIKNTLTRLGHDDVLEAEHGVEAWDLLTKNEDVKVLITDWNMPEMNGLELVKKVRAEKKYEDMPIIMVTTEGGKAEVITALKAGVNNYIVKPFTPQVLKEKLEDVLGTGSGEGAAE

These are yes or no findings as the source states them, for the method shown. In cells and extracts the contact can be indirect. Some results given as binding are weak or reduced against the parent protein; the word gives no strength. Where a sequence is shown, tags or fusion partners need not be part of it.

Here are results for six molecules from paper PMC6104132.

This assay deals with GST-Cj0371 (C. jejuni NCTC11168) (UniProt Q9PID1). Description: pull-down.
Turning to “His-tagged Cj6462 (residues 317-662 of Cj1564) (from UniProt Q0P864 317-662) (domain or fragment)”, the binding entry is recorded as “no binding”.

Consider “His-tagged Cj1110c (from UniProt Q0P9E4 1-429)”, for which the binding result was “no binding”.

Take “His-tagged CheY (from UniProt P0C635 1-130)”: the binding entry is recorded as “no binding”.

As for “His-tagged Cj1564 (residues 42-290 of Cj1564) (from UniProt Q0P864 42-290) (domain or fragment)”, the binding result is “no binding”.

With B1, the binding entry is “binds”.

As to B2, the binding result was “no binding”.
